Assay results from PubChem BioAssay (NCATS).
This list was built around the results that the source calls inconclusive (neither active nor inactive); the mix of calls is not that of the screen. Potencies of inconclusive entries are left out as doubtful fits. Activity calls are given as the source filed them. The call rests on the fitted dose curve; in most records, active means well fitted curve in the direction sought with a large enough effect; inconclusive means small, poorly fitted or top-dose-only effect, or another doubt; inactive means no such curve, though single readings can be large; an effect the other way counts as inactive or inconclusive.
Potency means the concentration at half of the fitted maximal effect; tags describe the fitted curve by direction and shape.

Test system: not listed separately
Test: Primary fluorescence-based thiol-reactive (MSTI) qHTS assay for identification of artifact compounds. (AID 1845221);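 further: thiol-reactive compounds lower the probe fluorescence signal; nearly all actives have a fitted effect of over 65% in size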
Settings: MSTI thiol-reactivity probe, 1 h; series mostly up to 53.8 µM; activity change, negative = thiol reactive: at the top concentration
Procedure, shortened: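 In PBS pH 7.4 with 2% DMSO, each compound met 4 uM MSTI for one hour at ambient temperature, shielded from light, before fluorescence detection.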
With `C=CC(=O)Nc1cccc(Oc2nc(Nc3ccc(N4CCN(C)CC4)cc3OC)ncc2Cl)c1` the Potency was active: 2.67 µM. In the case of `CCOc1ccccc1OCCNC(C)Cc1ccc(OC)c(S(N)(=O)=O)c1` (stereo not given), the “activity change, negative = thiol reactive” value (“activity change” for short) was inactive: 69.2%. In the case of `c1nc2nc(Nc3ccc(N4CCOCC4)cc3)nc(NC3CCCCC3)c2[nH]1`, the Potency was active: 0.922 µM. For `FC(F)c1nc2ccccc2n1-c1nc(N2CCOCC2)nc(N2CCOCC2)n1`, the “activity change” value was inactive: 11.2%. With `COc1cc2c(Nc3ccc(NC(=O)c4ccccc4)cc3)ncnc2cc1OCCCN1CCOCC1` the “activity change” value was inactive: 94.7%. In the case of `Cc1nnc(C(=O)NC(C)(C)c2nc(C(=O)NCc3ccc(F)cc3)c(O)c(=O)n2C)o1`, the Potency was inconclusive [inhibitor, full curve]. For `O=C1C(c2c(O)[nH]c3ccccc23)=Nc2ccccc21`, the Potency was active: 0.184 µM. In the case of `COc1nc(C)cnc1NS(=O)(=O)c1cccnc1-c1ccc(-c2nnco2)cc1`, the Potency was inconclusive [inhibitor, full curve, poor fit]. In the case of `CCN(CC)CCNC(=O)c1ccc2nc(-c3ccccc3)c(-c3ccc(CN4CCC(n5c(=O)[nH]c6ccccc65)CC4)cc3)nc2c1`, the “activity change” value was inactive: -22.8%. With `Cc1cn(-c2cc(NC(=O)c3ccc(C)c(Nc4nccc(-c5cccnc5)n4)c3)cc(C(F)(F)F)c2)cn1` the “activity change” value was inactive: 3.6%. For `Cn1c(CNc2ccc(C(=N)N)cc2)nc2cc(C(=O)N(CCC(=O)O)c3ccccn3)ccc21`, the “activity change” value was inactive: -0.98%.

Test system: Nanoluciferase (engineered Oplophorus gracilirostris luciferase)
Test: Primary Nanoluciferase (NLuc) qHTS assay for identification of artifact compounds. (AID 1845222);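 on activity, negative = inhibition: 0% = DMSO and -100% = no enzyme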
Settings: NLuc-conditioned medium, Nano-Glo luminescence, 5 min; series mostly up to 54.1 µM; activity, negative = inhibition: at the top concentration
Procedure, shortened: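 Luminescence from secreted NLuc (filtered, 1:55-diluted S16 cell medium) read 5 min after Nano-Glo substrate; compounds preincubated 15 min, RT. Hill fits of inhibition normalized to DMSO and no-enzyme.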
With `CC1=C(C(=O)Nc2cc3cn[nH]c3cc2F)C(c2ccc(Cl)cc2F)N=C(c2ccnc(Cl)c2)N1` (stereo not given) the Potency was inconclusive [inhibitor, partial curve]. In the case of `CCCCn1c(=O)n(Cc2ccccc2F)c(=O)c2[nH]c(Cc3ccc(NC(C)=O)cc3)nc21`, the Potency was active: 13.5 µM. For `COc1cc2c(Nc3ccc(NC(=O)c4ccccc4)cc3)ncnc2cc1OCCCN1CCOCC1`, the Potency was inconclusive [inhibitor, single point]. With `c1cncc(CN2CCC(n3ncc4c(N5CCOCC5)nc(-c5ccc6[nH]ccc6c5)nc43)CC2)c1` the “activity, negative = inhibition” value was inactive: 0%.
